# Results reported in ChEMBL document CHEMBL4888484, “Replenishing the malaria drug discovery pipeline: Screening and hit evaluation of the MMV Hit Generation Library 1 (HGL1) against asexual blood stage Plasmodium falciparum ,using a nano luciferase reporter read-out” (2022).
# In all, about 150,000 compounds went through this assay and about 540 (0.36%) showed an effect of 50% or more. The list shows a part of the results.
# System: Plasmodium falciparum
# Experiment: Primary screen in NF54 nanoGlo assay, in single point, at 2uM, 72h; a lower Z score goes with more inhibition
# Format: functional, Erythrocyte
# Settings: timepoint 72 hour
SMILES,% Inhibition,Z score
CC(CNC(=O)NCC1CCCO1)N(C)Cc1ccccc1 (centres undefined),-5%,0.52
O=C(c1cccs1)N1CCN(Cc2c(-c3ccc(Cl)cc3)nc3ccc(-c4cccc(Cl)c4)cn23)CC1,-22%,2.39
CCOC(=O)c1cc(C2CC2)nc2c1c(=O)n(Cc1ccccc1F)c(=O)n2C,-1%,0.13
CC(C(=O)NCC(C)(O)c1ccsc1)N1CCc2ccccc21 (centres undefined),-12%,1.21
CC(C)c1ccc(NC(=O)c2cc(S(=O)(=O)N3CCCCCC3)cn2C)cc1,-7%,0.95
O=C(c1cc(C(F)F)n[nH]1)N1CCc2[nH]nc(C3CC3)c2C1,-1%,0.13
O=C(Nc1ccc(NC(=O)[C@H]2Nc3ccc(Cl)cc3S(=O)(=O)N2)cc1)c1ccco1,-4%,0.69
Cc1sc2cc(C(=O)NC(C)(C)C)[nH]c2c1CN1CCOCC1,8%,-0.73
Cn1nc(C(=O)N(CC(F)(F)F)C2CCC2)ccc1=O,-5%,0.5
O=C(O)c1ccc2c(c1)CN(C(=O)C1CCC=CCC1)C2,-1%,0.31
COC1CCCN(C(=O)CC2(c3ccccc3)CC(=O)N(CC3CCCCC3)C2=O)C1 (centres undefined),-17%,2.29
Cc1[nH]nc(CN(C)[C@@H](C)CC(N)=O)c1Cl,-12%,1.61
COc1ccccc1C1CC1C(=O)N1CCCCCCC1 (centres undefined),-4%,0.8
O=C(c1cc(-c2ccc(Cl)s2)nc2ccccc12)N1CCN(c2cccc(Cl)c2)CC1,-26%,3.1
CO[C@H]1CN(C2CCN(C(=O)c3cccc4[nH]ccc34)CC2)C12CCOCC2,-9%,1.45
C=Cn1cc(CNC(c2ccccc2)C2CCCO2)cn1 (centres undefined),-4%,0.55
Cc1ccc(Nc2nc3ccccc3nc2C(=O)OC(C)C)c(C)c1,-14%,1.61
CCCOc1ccc([C@@H](N)CC(=O)OC)cc1OC,-12%,1.66
C[C@@H](C1CC1)n1cc(NC(=O)N2CCC(c3ccn(C)n3)CC2)cn1,0%,0.01
Cc1cc(Br)cnc1-c1noc([C@@H](C)c2cnn(C)c2)n1,-11%,1.67
O=C1CCCN1CCc1nc(Cc2cccs2)no1,-13%,2.51

SMILES,% Inhibition,Z score
CC(=O)Nc1c(C)ccc(NC(=O)c2cnc(C3CC3)s2)c1C,-14%,2.12
Cc1ccc(CNC(=O)[C@H]2CCCN(c3nc4c(s3)c(C)nn4-c3ccc(C)cc3)C2)cc1,7%,-0.91
CC(c1nc(C2CC2)no1)N1CCC(N(C)C(=O)OC(C)(C)C)C1 (centres undefined),-6%,0.88
COc1ccccc1CNC(=O)CN1C[C@@H]2CC[C@H]1CN(C(=O)N(C)C)C2,-6%,1.07
C[C@@H](c1nccs1)N(C)C(=O)CCc1c[nH]c2ccccc12,1%,-0.17
COc1cc(NC2CCN(C(=O)CCc3c(C)nn(C)c3C)CC2)cc(OC)c1,-9%,1.52
Cc1ccsc1CN(C)Cc1cc(C#CCO)cs1,6%,-1.15
Cc1ccc(N(C)Cc2cnn(-c3ccccc3)c2)nn1,-7%,0.6
O=C(CCc1cc(O)no1)ON1C(=O)CCC1=O,-16%,2.02
Cc1cc(C#N)nc(N2CCN(C(=O)c3cscn3)[C@@H](C)C2)n1,-3%,0.44
COc1ccc(CCN(Cc2nc(C(=O)N3CCN(c4ccccc4C)CC3)cs2)Cc2ccccc2F)cc1OC,0%,0.01
CC(C)(C)c1ccc(NC(=O)N2CCCN(CC(F)F)CC2)nn1,2%,-0.27
O=C(Nc1cc(F)ccc1Cl)N1C[C@H]2C[C@@H](C1)[C@@H]1CCCC(=O)N1C2,0%,-0.07
O=C(CCc1cncc(F)c1)N1CCN(C2CC2)CC1,-6%,1.19
O[C@@H](Cn1nnc2c1CCCC2)c1cccc(Br)c1,-6%,1.19
Cc1ccc(CNC(=O)[C@]2(C)Cn3cnc(C(=O)NCc4ccco4)c3C(=O)N2C2CC2)cc1,-24%,2.4
O=C(Cc1c(F)cccc1Cl)N1CCc2n[nH]c(=O)n2CC1,7%,-0.87
Cc1cc(C(=O)CN2C(=O)N[C@]3(CCOC3)C2=O)c(C)[nH]1,-2%,0.44
Cn1ncc2c(N)nc(N3CCCN(S(C)(=O)=O)CC3)nc21,-11%,2.04
CCCCN(Cc1cccn1Cc1ccc(Br)cc1)C(=O)CN(CC(C)C)C(=O)Nc1ccccc1CC,-6%,0.97
Cc1cccc2cc(C(=O)N[C@H]3CC[C@@H](N4CCN(C)CC4)CC3)sc12,-13%,1.44

SMILES,% Inhibition,Z score
OCc1nc(NCc2ccc3c(c2)OCCO3)ccc1Cl,-4%,0.68
CCn1nc(C)c(CCN(C)c2ccc(C(=O)O)cc2NS(=O)(=O)c2c(C)cc(C)cc2C)c1C,-11%,1.12
Cc1ccc(NC[C@H]2CCN(Cc3nc(C)c(C)o3)C2)nc1,-16%,2.25
COc1ccc(C(=O)N2CCC3(CCC(=O)N(Cc4ccccn4)C3)CC2)o1,-7%,1.24
Cc1cc(C)c(N2CC[C@H](Nc3cnn(CC(=O)NCCO)c3)C2=O)c(C)c1,-12%,1.51
Cc1ccsc1CCNC(=O)N1CCNC(=O)C1,-11%,1.45
Cc1ccc(OCC(=O)NC2CCOCC2)c(Cl)c1,-12%,1.36
N#Cc1c(F)cccc1N1CCC(CC(=O)N2CCCC2)CC1,-6%,0.77
COc1nc(N2CCN(c3ccc(Cl)cc3)CC2)ncc1C(=O)NCCN1CCOCC1,-11%,1.31
Cc1ccc(CCC(=O)N2CCC3(CCNCC3)C2)cc1,-7%,1.29
CCOC1CC(NC(=O)c2csnn2)C12CCCC2 (centres undefined),3%,-0.43
CC(=O)Nc1nc(C)c(S(=O)(=O)N2CCC(C)CC2)s1,-14%,1.52
Cn1ccc(NC(=O)CN2CCC3(CCC(=O)N(C4CCCC4)C3)CC2)n1,2%,-0.2
Cc1ccc(S(=O)(=O)NC[C@H]2O[C@@H](CO)[C@@H](O)[C@H]2N2CCN(c3cccc(C(F)(F)F)c3)CC2)cc1,-9%,1.21
Cc1ccc2ncc(-c3noc([C@H]4CCOC4)n3)n2c1,-15%,2.87
O=C(NC(Cc1ccncc1)[C@H]1C[C@@H](O)C1)c1csc2c1CCCC2 (some centres undefined),-2%,0.24
CC(C)(O)C#Cc1cccc(C(=O)NC[C@H]2CCN(Cc3ccccc3F)C2)c1,-14%,1.45
Cc1ccccc1OCCNC(=O)c1ccc(CN2CCOCC2)cc1,-5%,0.85
O=C(Nc1ccc2[nH]c(=O)[nH]c2c1)C1CC2C=CC1C2 (centres undefined),-4%,0.67
Cc1ccc(C(=O)NC[C@@H]2CCCN3CCCC[C@H]23)n1C(F)F,-6%,0.92
COc1ccc(-c2nc3cc(C)ccc3cc2CN2CCC[C@H]2C(N)=O)cc1,-24%,2.81

SMILES,% Inhibition,Z score
CC[C@H](C)NC(=O)CN1CCN(C(=O)c2c(O)nc3ccccc3c2C)CC1,1%,-0.12
CC(C)C[C@H](NC(=O)Nc1ccccc1)c1nnc2ccccn12,0%,0.01
Cc1ccc(N(C(=O)c2cccc(Br)c2)C2(C(=O)Nc3c(C)cccc3C)CCCC2)cc1,7%,-1.03
Cc1cc(=O)c(OCC(=O)Nc2cccnc2)c[nH]1,-7%,0.93
NC(=O)[C@@H]1C[C@@H](F)CN1S(=O)(=O)c1cc(Cl)sc1Cl,-3%,0.33
Cc1ccc(C(=O)CCN2CCCC[C@@H]2Cn2ccnn2)cc1,5%,-0.69
CCCN(CC(=O)N(Cc1ccccc1)Cc1ccc(C)o1)C(=O)c1ccco1,26%,0.45
O=C(Cc1cc(F)c(F)cc1F)NS(=O)(=O)CCC(F)(F)F,5%,-0.9
Cc1cccc([C@@H](C)CNC(=O)NCCC2(C)OCCO2)c1,-6%,0.84
Cc1conc1C(=O)N1CCCC[C@@]12CCOC2,-12%,1.28
COc1ccc([C@H]2C[C@H](NC(=O)c3cc(O)ccn3)C2)cc1F,-14%,2.83
COc1cc(-c2ccc3c(c2)OCCO3)ncn1,-9%,0.88
O=C(NC1CCCCC1)c1ccc(-n2cnnn2)cc1,7%,-0.9
COC(C)(C)C(=O)N1CC[C@]23C(=O)N(CC(=O)NCCCOc4cccc(c4)[C@H]12)c1ccccc13,-4%,0.42
Cc1cccc(N2CCC[C@H](c3cn[nH]c3)C2)n1,-4%,0.37
CC(C)N1CCC(N2CCN(c3cnc4ccccc4n3)C[C@@H]2CCO)CC1,4%,-0.58
COCCN(CCOc1ccccc1F)Cc1cccc(OC)c1O[C@@H](C)C(=O)O,0%,-0.05
Cc1cc(C(=O)Nc2cc(Cl)ccc2C)c2c(C)nn(-c3cccc(F)c3)c2n1,-10%,1.02
COc1ncc(NC(=O)Cc2ccc(F)cc2)cn1,-6%,1.23
